T1: rmGDF8 (R&D) (mouse (from the label rmGDF8 only), UniProt O08689 268-376)
T1 construct: The prefix 'rm' is read as recombinant mouse
T1 sequence (looked up): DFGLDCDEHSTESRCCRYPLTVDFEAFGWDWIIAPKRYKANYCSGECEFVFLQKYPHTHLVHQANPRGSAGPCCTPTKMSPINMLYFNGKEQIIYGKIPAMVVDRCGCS


Target: T1, rmGDF8 (R&D)
Test: Biacore, trap captured on amine-coupled Protein A (CM5), rmGDF8 0.312-20 nM as analyte
Method: Additional GDF8 prodomain Fc constructs were generated as described above. Parental hGDF8 traps hGDF8(105)-hFc and hGDF8(1-64)-hFC were modified to convert Cys residues at positions 39, 42, and/or 76 to Ser or Ala. Kinetic and affinity parameters for GDF8 binding by the modified myostatin traps were determined as described above and are summarized in Table 3. Generally, standard Biacore assays were conducted to determine the kinetic and affinity parameters between GDF8 and various myostatin hGDF8 traps. Assay parameters were as follows: Biacore CM5 chip; surface: amine-coupled Protein A; Regeneration: 100 mM H₃PO₄−1×30 s pulse; flow rate: 50 μl/min; sample injection 250 μl; dissociation time: 60 min; rmGDF8 (R&D) concentrations 0.312-20 nM; buffer: HBS-T.

| Binder | Kd [nM] | koff [s⁻¹] | kon [M⁻¹ s⁻¹] | t½ [h] |
| --- | --- | --- | --- | --- |
| hGDF8(1-64)-hFc (Fc fusion, also called Amino acids 1-64 of hGDF 8 prodomain fused to hFc with an SG linker) NENSEQKENVEKEGLCNACTWRQNTKSSRIEAIKIQILSKLRLETAPNISKDVIRQLLPKAPPLSG[sequence of human IgG1 Fc not given] | 0.013 | 2.5e-05 | 1.93e+06 | 7.7 |
| hGDF8(1-64)(C39S, C42S)-hFc (Fc fusion) NENSEQKENVEKEGLSNASTWRQNTKSSRIEAIKIQILSKLRLETAPNISKDVIRQLLPKAPPLSG[sequence of human IgG1 Fc not given] | 0.0112 | 3.93e-05 | 3.5e+06 | 4.9 |
| hGDF8(1-105)(D76A)-hFc (Fc fusion, also called hGDF8(105)-hFc modified) NENSEQKENVEKEGLCNACTWRQNTKSSRIEAIKIQILSKLRLETAPNISKDVIRQLLPKAPPLRELIDQYDVQRADSSDGSLEDDDYHATTETIITMPTESDFLSG[sequence of human IgG1 Fc not given] | 0.0125 | 5.27e-05 | 4.2e+06 | 3.65 |
